± gives the standard deviation. The list shows a part of the results, in another mix than the full data.
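Note: 1 nM active piRISC with 0.1 nM target library at 33 °C single turnover.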

The subject of this experiment is MIWI (PIWIL1) piRISC loaded with piRNA #1 (30 nt). The experiment is described as follows: pre-steady-state target cleavage rate (min^-1); MIWI and MILI are mouse PIWI proteins and EfPiwi is from a freshwater sponge; tags in brackets are library labels; higher = faster piRNA-guided slicing of the target. As to conditions: guide: piRNA #1 5'p-UGAGGUAGUAGGUUGUAUAGUAUCCAGAGG; auxiliary factor: 500 nM mouse GTSF1. An outline of the steps: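 Three pooled Cleave-'n-Seq trials supplied the data, with k3 capped at 0.0001 min^-1. In each, […] transcribed, DNA-blocked target RNA library and 1 nM active affinity-purified piRISC with one synthetic guide reacted in HEPES–potassium acetate buffer at 33 °C for 0–8 or 0–960 min, with or without 500 nM GTSF1 partner protein. Uncleaved targets were sequenced and normalised to depth and to weakly complementary targets. A burst-and-steady-state fit provided the pre-steady-state cleavage rate.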
Take GGUCUGGAUACUAUACAACUACUACCUCA: the “pre-steady-state target cleavage rate” value is 0.438 ± 0.042. Under GCUCUGGAUUCUAUUCAACCUACUACCUCA stands 1.02 ± 0.077.

As to GGAGACCUAUCUUUACAUCCUACUACCUCA, the “pre-steady-state target cleavage rate” value was determined as 0.0871 ± 0.016.

For the sequence GGACUGGAUACUAUAGAACCUACUACGUCA, the “pre-steady-state target cleavage rate” value was 0.0162 ± 0.0043. Under GGAGACCUAUGAUAUGUACCUACGUACCUCA stands less than 0.0001; under GGAGUGGAUACCUAUACAACCUACUACCUCA, 1.25 ± 0.08; under GGAGACCAUACUAUACAACCUAGUACCACA, 0.344 ± 0.07. The value for GGAGAGGAUACUUAACAACCUACUACCUCA was 1.11 ± 0.09; that for GGAGAGGAUACUAUACAACCUGCUACCUCA was 0.754 ± 0.038. On to “GGAGAGGAUACUAUACAACCUACUACCUCC [g2:g25:cont:t1C]”, for which the “pre-steady-state target cleavage rate” value came out at 0.801 ± 0.042. The value for GGAGACCUUACUAUACAACCACUACCUCA was 0.00306 ± 0.0027; that for GGAGACCUAACUGAUACAACCUACUACCUCA was 0.262 ± 0.076; that for GGAGUGGAUACUAUUCAACCAACUACCUCA was 0.106 ± 0.011. Under GGAGACCAUACAAUACAACCUACUACGUCA stands 0.511 ± 0.057; under GGAGACCAUAUCUAUACAACCUACUACCUCA, 1.35 ± 0.11; under GGAGACCUAUCUAUACAACCUACUUACCUCA, 0.898 ± 0.097. The value for GGAGACGAUACUAUACAACCUAGUACCUGA was 0.017 ± 0.0076; that for GGAGACCAUACUAUACAACCAAGUACCUCA was 0.0146 ± 0.0021; that for GGAGACGAUACUAUACAACCUACUACCCUCA was 0.895 ± 0.07. Consider GGAGACGAUACUAUACAACCUUCAACCUCA, for which the “pre-steady-state target cleavage rate” value was found to be 0.259 ± 0.02. The value for GGAGACCAUUCUAUACAACCUAGUACCUCA was 0.538 ± 0.052; that for GGAGAGGAUACUAUAGAACCUACUACGUCA was 0.143 ± 0.024; that for GGAGACAAUACUAUACAACCUACUACCUCA was 1.81 ± 0.098. Under GGAGACGAUACUAUACAACCUACUACCAUCA stands 0.71 ± 0.064; under GGACUGGAUACUAUACAAGCUACUACCUGA, 0.683 ± 0.058.

On to CCUCUGGGAUACUAUACAACCUACUACCUCA, for which the “pre-steady-state target cleavage rate” value is 1.9 ± 0.1.

In the case of GGAGACGAUACUAUUCAACCUACUACCUGA, the “pre-steady-state target cleavage rate” value worked out at 0.528 ± 0.072.

For GGACUGGAUACAAAACAACCUACUACCUCA, the “pre-steady-state target cleavage rate” value turned out to be 0.763 ± 0.12.

As to GCUCUGGAUACUAUACAACCUACUACAUCA, the “pre-steady-state target cleavage rate” value amounted to 1.42 ± 0.095. Under GGAGACCUUACUAUACUACCUAGUACCUCA stands 0.108 ± 0.014. The value for GGUCUGGUUACUAUACAACCUACAACCUCA was 0.39 ± 0.04.

GGAGACCUAUGUACACAACCUACUACCUCA: the “pre-steady-state target cleavage rate” value is 0.0163 ± 0.0046. The value for GGAGACCUUAGUAUACAACCAACUACCUCA was 0.011 ± 0.0029; that for GGUCUGGAUACAAUUCAACCUACUACCUCA was 1.44 ± 0.11; that for GGUGUGGAUACUAUACAACGUACUACCUCA was 0.718 ± 0.041. The value for GGUCUGGAUACUAUAAAACCUACUACCUCA was 1.6 ± 0.1; that for GGAGACCAUACUCAUACAACCUACUACCUCA was 0.893 ± 0.099. Under GGACUGGAUACUAUUCAACCAACUACCUCA stands 0.0795 ± 0.0087. Take GGAGAGGAUAGUAUACAACCUACUACGUCA: the “pre-steady-state target cleavage rate” value is 0.413 ± 0.033.

For the sequence GGACUGGAUACUAUACAACGAACUACCUCA, the “pre-steady-state target cleavage rate” value turned out to be 0.0145 ± 0.0037.

Values taken from the supplement of paper PMC10338343.
